Measured values: article PMC4336329 (PLoS ONE, 2015)
The whole screen tested about 310,000 compounds, of which about 14,000 (4.5%) showed an effect of 50% or more. Effects have a minus sign here. Some of the results follow.

molecular target: human ether-à-go-go-related gene (hERG) potassium channel (human, UniProt Q12809); test: primary screen, population patch clamp on CHO cells stably expressing hERG
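Also: peak tail current of the secondary pulse compared with the same well before compound.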

Chain of human ether-à-go-go-related gene (hERG) potassium channel (Q12809 whole entry, looked up): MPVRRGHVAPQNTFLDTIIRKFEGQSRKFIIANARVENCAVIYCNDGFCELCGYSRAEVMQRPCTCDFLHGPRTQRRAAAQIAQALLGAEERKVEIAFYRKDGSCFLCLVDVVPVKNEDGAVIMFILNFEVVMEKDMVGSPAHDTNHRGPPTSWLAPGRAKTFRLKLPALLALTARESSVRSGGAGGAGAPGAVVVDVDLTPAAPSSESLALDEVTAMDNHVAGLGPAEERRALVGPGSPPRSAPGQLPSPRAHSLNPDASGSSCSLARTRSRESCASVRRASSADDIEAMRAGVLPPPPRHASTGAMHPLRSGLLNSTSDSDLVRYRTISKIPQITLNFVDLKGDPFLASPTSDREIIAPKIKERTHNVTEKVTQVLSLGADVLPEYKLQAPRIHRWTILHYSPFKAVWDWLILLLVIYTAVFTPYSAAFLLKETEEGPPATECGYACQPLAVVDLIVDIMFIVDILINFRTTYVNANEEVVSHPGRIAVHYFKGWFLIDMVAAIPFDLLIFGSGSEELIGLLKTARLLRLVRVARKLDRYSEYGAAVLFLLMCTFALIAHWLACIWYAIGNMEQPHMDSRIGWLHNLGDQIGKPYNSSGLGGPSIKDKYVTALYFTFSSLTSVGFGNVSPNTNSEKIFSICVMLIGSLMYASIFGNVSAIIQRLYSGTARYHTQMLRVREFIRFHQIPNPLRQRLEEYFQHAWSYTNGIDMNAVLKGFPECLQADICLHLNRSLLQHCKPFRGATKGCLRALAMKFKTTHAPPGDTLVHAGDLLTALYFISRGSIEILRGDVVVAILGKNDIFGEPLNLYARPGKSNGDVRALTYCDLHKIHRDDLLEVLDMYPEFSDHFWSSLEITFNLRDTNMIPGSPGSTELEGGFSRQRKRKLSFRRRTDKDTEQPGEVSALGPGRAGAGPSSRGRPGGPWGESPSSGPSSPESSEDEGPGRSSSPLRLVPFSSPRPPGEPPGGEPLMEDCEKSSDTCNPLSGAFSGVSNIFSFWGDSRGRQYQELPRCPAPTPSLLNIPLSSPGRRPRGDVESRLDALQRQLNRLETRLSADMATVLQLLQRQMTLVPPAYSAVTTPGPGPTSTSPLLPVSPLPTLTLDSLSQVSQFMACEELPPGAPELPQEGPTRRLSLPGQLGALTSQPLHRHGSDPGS

Row | SMILES | hERG current change (%, negative = inhibition) at 10uM
1 | Cc1ccc(OCCOCCN2CCCCC2)c([N+](=O)[O-])c1.O=C(O)C(=O)O | -37.5%
2 | CC(C)(C)NC(=S)N/N=C/c1c(Cl)cccc1Cl | 9.12%
3 | CCOc1ccc(NC(=O)CN(C)C(=O)c2ccc(N3CCCCC3)c([N+](=O)[O-])c2)cc1OCC | -57.6%
4 | O=S(=O)(c1ccc(C(F)(F)F)cc1)N1CCN(CCc2ccccc2)CC1 | 5.81%
5 | [O-][Cl+3]([O-])([O-])[O-].c1ccc(-c2[nH]c(-c3ccccc3)[n+](CC3CO3)c2-c2ccccc2)cc1 (stereo not drawn) | -28.5%
6 | CN(CC(=O)Nc1ccc(Cl)c(C(F)(F)F)c1)C(=O)CCc1nc2ccccc2c(=O)[nH]1 | -8.34%
7 | Clc1ccccc1Nc1c2c(nc3ncnn13)CCC2 | -21.8%
8 | CN1CCC(=NNC(=O)CSCc2ccccc2)CC1 | -0.628%
9 | CCc1ccc(CN(C)C(=O)c2cc(COc3cc(C)c(Cl)c(C)c3)on2)nc1 | 14.7%
10 | COc1ccc(OC)c(C(=O)c2ccccn2)c1 | -35.1%
11 | CC(NC(=O)c1ccnc(C(C)(C)C)c1)c1ccccc1 (stereo not drawn) | 21.6%
12 | CCCCN(CC)C(=O)c1ccccc1Oc1ccccc1 | -10.8%
13 | COC(=O)c1cncc(O)c1 | 3.95%
14 | O=S(=O)(c1ccc(Br)s1)N1CCN(c2ccnc3cc(Cl)ccc23)CC1 | -14.8%
15 | CCCCOc1ccccc1C1C(C(=O)OC)=CN(CC)C=C1C(=O)OC | -16%
16 | CC(OC(=O)CCCNC(=O)c1ccc(Cl)cc1)C(=O)N(C)Cc1ccccc1 (stereo not drawn) | -54.2%
17 | CC(C)(C)c1ccc(Oc2ccc(NC(=O)CCCC(=O)O)cn2)cc1 | 12%
18 | COC(=O)c1c(NC(=O)CN2C(=O)NC3(CCc4ccccc4C3)C2=O)sc2c1CCCCC2 (stereo not drawn) | 21.5%
19 | Cc1occc1C(=O)NNC(=S)Nc1ccccc1C(F)(F)F | 6.27%
20 | O=C(COC(=O)/C=C/c1ccc(F)cc1)Nc1ccc2[nH]c(=O)[nH]c2c1 | 3.95%
21 | CCCCCn1nc(C(=O)N2CCc3ccccc32)c2ccccc2c1=O | -3.43%
22 | CN1CCN(CCCNCc2cn(CCC#N)c3ccccc23)CC1.O=C(O)C(=O)O | 9.43%
23 | COc1ccc2[nH]c(C)c(CCN(Cc3cccs3)C(=S)Nc3ccccc3)c2c1 | 6.86%
24 | Cc1cccc(NC(=S)N/N=C/c2cccc(O)c2)c1C | -1.2%
